Residue numbers refer to the chain shown, from its start. Names and notes keep the numbering of the source.

Assay [1] deals with T1, human ASGR1 extracellular domain (ECD) (Homo sapiens, UniProt P07306).
T1 sequence (P07306 62-291 limits assumed): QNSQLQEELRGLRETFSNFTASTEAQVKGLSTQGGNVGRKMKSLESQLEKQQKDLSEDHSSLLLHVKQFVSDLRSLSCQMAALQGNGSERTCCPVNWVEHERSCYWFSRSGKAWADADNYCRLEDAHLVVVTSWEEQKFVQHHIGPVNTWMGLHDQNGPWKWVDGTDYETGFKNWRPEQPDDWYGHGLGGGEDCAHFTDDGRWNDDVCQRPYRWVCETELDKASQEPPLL
The experiment in a line: Effect of calcium on anti-ASGR1 binding and dissociation (OCTET Red 96, Penta-His biosensors). Set-up: key to Ca2+ sensitivity during association / Ca2+ sensitivity during dissociation / Ca2+ Sensitivity: N = No; Y = Yes. The following applies: for calcium sensitivity of binding to human ASGR1 ECD: sensitive: difference in binding signal after dissociation with vs without calcium >±10%. Here is the method:
The ability of anti-human ASGR1 antibodies of this disclosure to bind to human ASGR1 in the presence or absence of calcium in binding buffer was examined. Briefly, ASGR1 antibodies were bound to immobilized human ASGR1 extracellular domain (ECD) at saturating levels and subsequently dissociated under three different conditions as follows: (a) binding and dissociation with buffer containing calcium (PBS+1% BSA+0.2% Tween20+0.9 mM CaCl2), pH 7.4); (b) binding with buffer containing calcium and dissociation with buffer lacking calcium; and (c) binding and dissociation with buffer lacking calcium. Analysis of ASGR1 antibody binding to human ASGR1 ECD was performed using the OCTET® Red 96 instrument and analyzed using the OCTET®Data Analysis Software 9.0 (ForteBio). His-tagged human ASGR1 ECD was immobilized to OCTET® Penta-His biosensors and ASGR1 antibodies were subjected to avidity binding under the conditions described above. Association with the ASGR1 ECD was measured by the rate of and increase in magnitude of signal response at a given antibody concentration. Dissociation from the ASGR1 ECD was measured the rate of loss in signal upon removal of the antibody and further incubation with or without Ca^2+. […] Also tested were humanized antibodies hzH8K-1 and hzL4L-7.
Further analysis of the antibodies of this disclosure was to determine whether the presence of calcium was needed for binding (i.e., during association) of the antibodies to human ASGR1 ECD. […]

Assay [2] addresses T2, HepG2 cells (which express ASGR1) (Homo sapiens, UniProt P07306).
T2 construct: endogenous in cells; host or cells: HepG2
T2 sequence (P07306 1-291): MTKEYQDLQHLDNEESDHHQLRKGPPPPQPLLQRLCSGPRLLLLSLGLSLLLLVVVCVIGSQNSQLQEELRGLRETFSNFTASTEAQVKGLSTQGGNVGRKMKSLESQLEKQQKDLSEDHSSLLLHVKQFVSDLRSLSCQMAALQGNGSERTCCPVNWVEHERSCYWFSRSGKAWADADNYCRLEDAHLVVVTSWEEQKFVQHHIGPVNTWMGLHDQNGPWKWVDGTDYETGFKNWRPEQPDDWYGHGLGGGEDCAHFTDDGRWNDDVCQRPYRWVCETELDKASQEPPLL
Kind of assay: Guava HepG2 cell binding screen of anti-ASGR1 mAbs. The note with it: humanized G2D clones; two numbers per cell, their meaning is not given. The procedure:
Additionally, hybridomas producing monoclonal antibodies (mAbs) specific for human ASGR1 were prepared from Balb/C mice immunized with ASGR1-AviHis at a service provider using their propriety protocol. Antibody heavy and light chain sequences were obtained, amplified, and cloned. Clone supernatants containing the expressed mAbs were screened for binding to a human ASGR1-IgG1Fc fusion protein, and those with a positive signal as measured by enzyme linked immunosorbent assay (ELISA) were screened for cell binding on HepG2 cells (which express ASGR1). […] The isolated mAbs were further analyzed for the additional characteristics including, for example, titer, low aggregate content following protein A purification, high titer, lack of cross-blocking of ligand GalNac, calcium sensitivity, and cross-reactivity with rat ASGR1 protein.

B1: chG2D: "Chimeric antibodies were chG2D (heavy chain SEQ ID NO:150; light chain SEQ ID NO:206)" (antibody)
heavy: EVQLQQSGPELVKPGASVKISCKASGYSFTGYYMHWVKQSHVKSLEWIGRINPNNGATNYNQNFKDKASLTVDKSSSTAYMEFHSLTSEDSAVYYCTSVNFYYWGQGTTLTVSS[… human IgG1 constant region …]
light: DIKMTQSPSSMYASLGERVTITCKASQVINSYLSWFQQKPGKSPETLIYRANTLVDGVPSRFSGSGSGQDYSLTISSLEYEDLGIYYCLQYAEFPYTFGGGTKLEIKRTVAAPSVFIFPPSDEQLKSGTASVVCLLNNFYPREAKVQWKVDNALQSGNSQESVTEQDSKDSTYSLSSTLTLSKADYEKHKVYACEVTHQGLSSPVTKSFNRGEC
modifications: Synthetic sequence chG2D Heavy Chain; Synthetic sequence chG2D Light Chain
For the molecule B1, the “Ca2+ sensitivity during association” value in assay [1] (binding to human ASGR1 ECD with or without calcium, OCTET) is listed as “Y”. For the same molecule, in assay [1] (dissociation from human ASGR1 ECD with or without calcium, OCTET), the “Ca2+ sensitivity during dissociation” value is given as “N”. In addition, the “Ca2+ Sensitivity” value in assay [1] (overall summary column) is “Y”. Further, in assay [1], the “calcium sensitivity of binding to human ASGR1 ECD” value was “lacking sensitivity to calcium”.

B2: hzG2D-21: humanized G2D clone; VL "grafted into the human germline sequence VKI-L1 with JK4 to generate hzG2D VLa (SEQ ID NO:131)" (antibody)
heavy: QVQLVQSGAEVKKPGASVKVSCKASGYTFTGYYMHWVRQAPGQRLEWMGRINPNNGATNYNQNFKDKASLTVDTSASTAYMELSSLRSEDTAVYYCTSVNFYYWGQGTTVTVSS[… human IgG1 constant region …]
light: DIQMTQSPSSLSASVGDRVTITCKASQVINSYLSWFQQKPGKAPKSLIYRANTLVDGVPSRFSGSGSGTDFTLTISSLQPEDFATYYCLQYAEFPYTFGGGTKVEIKRTVAAPSVFIFPPSDEQLKSGTASVVCLLNNFYPREAKVQWKVDNALQSGNSQESVTEQDSKDSTYSLSSTLTLSKADYEKHKVYACEVTHQGLSSPVTKSFNRGEC
As for B2, in assay [2], the “Guava HepG2 Screen” value is given as 199/127.

B3: hzG2D-24: humanized G2D clone; VL "grafted into the human germline sequence VKI-A20 with JK4 to generate hzG2D VLc (SEQ ID NO:249)" (antibody)
heavy: B2 heavy with T97A, S98R
light: B2 light with F36Y, A43V, S46L, F83V
Consider B3, for which the “Guava HepG2 Screen” value in assay [2] is “None”.

B4: hzG2D-1: humanized G2D clone; VL "grafted into the human germline sequence VKI-L1 with JK4 to generate hzG2D VLa (SEQ ID NO:131)" (antibody)
heavy: B2 heavy with K67R, A68V, S69T, L70I, V72R, T97A, S98R, V110L
light: B2 light
Take B4: in assay [2], the “Guava HepG2 Screen” value was 32/19.

B5: hzG2D-23: humanized G2D clone; VL "grafted into the human germline sequence VKI-O2 with JK4 to generate hzG2D VLb (SEQ ID NO:247)" (antibody)
heavy: B2 heavy
light: B2 light with F36Y, S46L
Take B5: the “Guava HepG2 Screen” value in assay [2] is on record as 198/131.

B6: hzG2D-25: humanized G2D clone; VL "grafted into the human germline sequence VKI-A20 with JK4 to generate hzG2D VLc (SEQ ID NO:249)" (antibody)
heavy: B2 heavy
light: B2 light with F36Y, A43V, S46L, F83V
B6: the “Guava HepG2 Screen” value in assay [2] is reported as “None”.

B7: hzG2D-22: humanized G2D clone; VL "grafted into the human germline sequence VKI-O2 with JK4 to generate hzG2D VLb (SEQ ID NO:247)" (antibody)
heavy: B2 heavy with T97A, S98R
light: B2 light with F36Y, S46L
In the case of B7, in assay [2], the “Guava HepG2 Screen” value is reported as “None”.

B8: chH8K: "Chimeric antibodies were ... chH8K (heavy chain SEQ ID NO:153; light chain SEQ ID NO:209)" (antibody)
heavy: DVQLQESGPGLVKPSQSLSLTCTVTGFSITSDYAWNWIRQFPGNQLEWMGYRSYRGSTSYNPSLKSRISITRDTSKNQFFLQLNSVTTEDTATYYCARRGYYGSSSHWYFDVWGAGTTVTVSS[… human IgG1 constant region …]
light: DIQMTQSPASLSASVGETVTITCRASENIYSYLAWYQQKQGKSPQLLVYNAKTLAEGVPSRFSGSGSGTQFSLKINSLQPEDFGSYYCQHHYGTPLTFGSGTKLELKRTVAAPSVFIFPPSDEQLKSGTASVVCLLNNFYPREAKVQWKVDNALQSGNSQESVTEQDSKDSTYSLSSTLTLSKADYEKHKVYACEVTHQGLSSPVTKSFNRGEC
modifications: Synthetic sequence chH8K Heavy Chain; Synthetic sequence chH8K Light Chain
For the molecule B8, in assay [1], the “calcium sensitivity of binding to human ASGR1 ECD” value is “lacking sensitivity to calcium”.

These data come from US20210130473A1, “TGFßR1 INHIBITOR-ASGR ANTIBODY CONJUGATES AND USES THEREOF” (Silverback Therapeutics, Inc., priority 2019, published 2021).
